# Source: PubChem BioAssay (Tox21)
# Values joined by “and” are separate entries in the source; they are usually repeats but may differ in a detail not shown here. Equal entries are not always repeated. This list was built around the results that the source calls inconclusive (neither active nor inactive); the mix of calls is not that of the screen. A call without a number means that no potency is given here. For some assays here: Potencies of inconclusive entries are doubtful fits and often do not repeat. Active and inactive are the calls of the source. Unless noted, calls come from the whole dose curve; as a rule, active = well fitted curve in the direction sought with a large enough effect in the repeat runs; inconclusive = weak or mixed curves; inactive = no such curve, though single readings can be large; an effect the other way counts as inactive or inconclusive.
# How the values were obtained:
# [1] = qHTS assay to identify small molecule antagonists of the TGF-beta/Smad signaling pathway (AID 1346924; active = well fitted inhibition curve with a large enough effect in the signal ratio in the repeat runs, not every such curve was filed as active; inconclusive = weak or mixed curves; the % refers to the signal ratio; note: potency is the fitted concentration of half-maximal effect); conditions: SBE-bla HEK293T, TGF-beta/Smad reporter, beta-lactamase ratio; activity, negative = inhibition: at 76.8 µM (top of the series) unless noted
# How it was run: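 SBE-bla HEK 293T cells were plated overnight, then received compound in DMSO plus TGF-beta1 (added as a 0.25 ng/mL solution) and were incubated 5 h at 37 C. Beta-lactamase reporter activity was read after 2 h at room temperature with LiveBLAzer B/G FRET substrate (ex 405, em 460/530 nm).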
# [2] = molecular target: Nuclear receptor subfamily 1 group I member 2 (Homo sapiens) (UniProt O75469); assay: Human pregnane X receptor (PXR) small molecule agonists, qHTS assay (AID 1346982); note: nearly all actives have a fitted effect of over 35% in size; note: potency is the fitted concentration of half-maximal effect
# How it was run: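 We seeded PXR-Luc HepG2 cells in assay medium containing 5% charcoal-stripped FBS, added compounds 5 hr later, incubated 24 hr, and read luminescence with ONE-Glo reagent.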
# [3] = Caspase-3/7 induction in CHO-K1 cells by small molecules, qHTS cell viability counter screen (AID 1346979); conditions: CellTiter-Fluor fluorescence, 17 h; activity change, negative = cytotoxicity: at 92.4 µM (top of the series); note: nearly all actives have a fitted effect of over 35% in size; note: potency is the fitted concentration of half-maximal effect
# How it was run: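 To flag cytotoxic compounds, treated CHO-K1 wild-type cells were given CellTiter-Fluor at 16hr and read fluorescently after 1hr at 37C; the caspase-3/7 luminescence was measured in these same wells.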
# [4] = Human pregnane X receptor (PXR) small molecule agonists, qHTS cell viability counter screen (AID 1346977); note: nearly all actives have a fitted effect of over 50% in size; note: potency is the fitted concentration of half-maximal effect
# How it was run: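 Readout is CellTiter-Fluor fluorescence from PXR-Luc HepG2 cells. Plated cells rested 5hr, then were treated with compounds for 24hr at 37C and 5% CO2, with reagent present during the last hour.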
# [5] = molecular target: Cytochrome P450 2D6 (Homo sapiens) (UniProt P10635); assay: Cytochrome P450 Family 2 Subfamily D Member 6 (CYP2D6) small molecule antagonists: luciferase reporter qHTS assay (AID 1671196); note: nearly all actives have a fitted effect of over 50% in size; note: potency is the fitted concentration of half-maximal effect
# UniProt P10635, sequence (P10635 whole entry, looked up): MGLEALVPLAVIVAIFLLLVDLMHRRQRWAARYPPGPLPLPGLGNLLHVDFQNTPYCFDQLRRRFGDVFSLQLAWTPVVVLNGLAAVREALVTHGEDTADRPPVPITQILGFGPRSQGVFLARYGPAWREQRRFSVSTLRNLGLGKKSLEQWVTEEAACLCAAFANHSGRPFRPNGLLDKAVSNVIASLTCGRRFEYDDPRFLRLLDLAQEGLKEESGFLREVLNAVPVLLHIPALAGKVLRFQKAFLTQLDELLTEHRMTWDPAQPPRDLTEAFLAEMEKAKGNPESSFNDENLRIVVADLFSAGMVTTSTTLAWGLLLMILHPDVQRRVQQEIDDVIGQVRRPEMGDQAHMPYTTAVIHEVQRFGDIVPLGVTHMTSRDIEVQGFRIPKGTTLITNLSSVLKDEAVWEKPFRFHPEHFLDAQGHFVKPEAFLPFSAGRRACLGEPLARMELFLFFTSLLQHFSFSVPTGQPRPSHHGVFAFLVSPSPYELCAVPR
# How it was run: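 Luminescence (RLU), read 20 min after detection reagent, indicated CYP2D6 conversion of proluciferin to luciferin during a 1 h NADPH-dependent reaction at room temperature.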
# [6] = molecular target: Cytochrome P450 2C9 (Homo sapiens) (UniProt P11712); assay: Cytochrome P450 Family 2 Subfamily C Member 9 (CYP2C9) small molecule antagonists: luciferase reporter qHTS assay (AID 1671198); note: nearly all actives have a fitted effect of over 50% in size; note: potency is the fitted concentration of half-maximal effect
# UniProt P11712, sequence (P11712 whole entry, looked up): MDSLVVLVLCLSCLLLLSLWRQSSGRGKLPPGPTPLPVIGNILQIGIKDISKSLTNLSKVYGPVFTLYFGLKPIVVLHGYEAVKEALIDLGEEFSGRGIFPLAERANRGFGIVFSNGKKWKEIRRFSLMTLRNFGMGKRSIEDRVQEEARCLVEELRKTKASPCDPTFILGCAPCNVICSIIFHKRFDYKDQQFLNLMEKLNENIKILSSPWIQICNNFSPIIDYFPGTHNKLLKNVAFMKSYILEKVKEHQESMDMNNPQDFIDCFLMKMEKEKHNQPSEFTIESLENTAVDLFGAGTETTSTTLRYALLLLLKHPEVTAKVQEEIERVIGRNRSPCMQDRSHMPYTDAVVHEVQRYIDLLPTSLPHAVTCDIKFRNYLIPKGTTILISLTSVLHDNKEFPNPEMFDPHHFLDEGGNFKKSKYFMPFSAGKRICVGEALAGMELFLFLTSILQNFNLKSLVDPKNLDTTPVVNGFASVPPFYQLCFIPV
# How it was run: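 CYP2C9 activity was measured with a P450-Glo proluciferin substrate. Enzyme–substrate mix was held with compound for 10 min at room temperature, then NADPH regeneration solution was added for 1 h at 37C. Luciferin product was read as luminescence.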
# [7] = molecular target: Cytochrome P450 2C19 (Homo sapiens) (UniProt P33261); assay: Cytochrome P450 Family 2 Subfamily C Member 19 (CYP2C19) small molecule antagonists: luciferase reporter qHTS assay (AID 1671197); note: nearly all actives have a fitted effect of over 65% in size; note: potency is the fitted concentration of half-maximal effect
# UniProt P33261, sequence (P33261 whole entry, looked up): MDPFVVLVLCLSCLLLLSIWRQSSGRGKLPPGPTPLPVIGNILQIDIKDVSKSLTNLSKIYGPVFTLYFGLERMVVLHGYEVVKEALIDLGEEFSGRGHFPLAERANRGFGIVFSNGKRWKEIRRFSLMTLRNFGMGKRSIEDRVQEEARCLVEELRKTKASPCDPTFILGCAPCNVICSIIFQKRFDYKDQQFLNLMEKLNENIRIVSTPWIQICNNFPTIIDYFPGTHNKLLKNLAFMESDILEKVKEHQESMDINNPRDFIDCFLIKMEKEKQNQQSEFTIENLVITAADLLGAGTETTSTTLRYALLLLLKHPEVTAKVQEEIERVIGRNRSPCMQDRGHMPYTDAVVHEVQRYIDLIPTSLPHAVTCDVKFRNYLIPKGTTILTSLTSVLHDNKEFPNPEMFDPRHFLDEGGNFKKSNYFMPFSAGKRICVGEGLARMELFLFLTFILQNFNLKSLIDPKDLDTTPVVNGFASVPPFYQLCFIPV
# How it was run: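 Light output is proportional to CYP2C19 activity: proluciferin substrate is converted to luciferin, then detected by a luciferin detection reagent that also stops the 1 h, 37C NADPH-driven reaction. Ketoconazole serves as positive control.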
# [8] = Caspase-3/7 induction in HepG2 cells by small molecules, qHTS cell viability counter screen (AID 1346981); note: nearly all actives have a fitted effect of over 30% in size; note: potency is the fitted concentration of half-maximal effect
# How it was run: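 Multiplexed with the caspase-3/7 assay: HepG2 cells, 16 hr compound treatment, CellTiter-Fluor viability detection by fluorescence.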
# [9] = Caspase-3/7 induction in HepG2 cells by small molecules, qHTS assay (AID 1346978); note: nearly all actives have a fitted effect of over 15% in size
# How it was run: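 Wild-type HepG2 cells (2,000/well) were settled 5 h at 37 C, 5% CO2, then exposed to compounds in DMSO for 17 h. Caspase-3/7 activity was read by luminescence 30 min after adding Caspase-Glo 3/7 reagent at room temperature.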
# [10] = molecular target: Nuclear receptor subfamily 1 group I member 2 (Homo sapiens) (UniProt O75469); assay: CYP3A4 induction through human pregnane X receptor (PXR) by small molecules, qHTS assay (AID 1346984); note: potency is the fitted concentration of half-maximal effect; nearly all actives have a fitted effect of over 40% in size
# How it was run: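 qHTS, concentration-response format: HepG2 DPX-2 line, PXR/CYP3A4-luc. Exposure 24 h, 37C. Substrate Luciferin-IPA 3uM final, 3 h. Detection One-Glo, 30 min RT.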
# [11] = molecular target: Nuclear receptor subfamily 1 group I member 2 (Homo sapiens) (UniProt O75469); assay: Human pregnane X receptor (PXR) activation by small molecules, qHTS assay (AID 1346985); note: potency is the fitted concentration of half-maximal effect; nearly all actives have a fitted effect of over 40% in size
# How it was run: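 DPX-2 cells (HepG2 co-transfected with a PXR response element and a CYP3A4-promoter luciferase construct) were seeded at 2,000 per well, rested 5 hr at 37C, then exposed to DMSO-dissolved compounds for 24 hr. Activation was read as luciferase luminescence.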
# [12] = molecular target: Nuclear receptor subfamily 1 group I member 2 (Rattus norvegicus) (UniProt Q9R1A7); assay: Rat pregnane X receptor (rPXR) activation by small molecules, qHTS assay (AID 1346983); conditions: rPXR luciferase reporter cells, One-Glo luminescence, 24 h; max activation: active compounds read high; note: nearly all actives have a fitted effect of over 20% in size
# UniProt Q9R1A7, sequence (Q9R1A7 whole entry, looked up): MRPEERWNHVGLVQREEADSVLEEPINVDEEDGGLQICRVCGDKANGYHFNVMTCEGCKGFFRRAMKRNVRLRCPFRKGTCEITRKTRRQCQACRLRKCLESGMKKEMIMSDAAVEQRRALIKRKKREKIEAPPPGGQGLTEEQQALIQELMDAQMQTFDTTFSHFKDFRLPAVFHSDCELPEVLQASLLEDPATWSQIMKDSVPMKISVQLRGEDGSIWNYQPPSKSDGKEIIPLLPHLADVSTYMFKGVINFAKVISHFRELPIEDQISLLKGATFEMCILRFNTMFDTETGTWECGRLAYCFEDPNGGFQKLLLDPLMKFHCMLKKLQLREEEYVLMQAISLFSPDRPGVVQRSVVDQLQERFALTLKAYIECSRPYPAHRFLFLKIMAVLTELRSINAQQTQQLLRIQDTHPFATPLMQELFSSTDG
# How it was run: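 Cell-based rPXR luciferase reporter assay, 2,000 cells per well, rested 5hr at 37 C before compound addition in DMSO, then 24 hr at 37 C. One-Glo reagent was added and luminescence read after 30 min at room temperature.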
# Tags give direction and shape of the fitted curve or compound fluorescence and quenching.
smiles,measurement,setting,value
CC(C)(C)C1CCCCC1=O (configuration not stated),"activity, negative = inhibition",[1],inconclusive: -21.3%
same,Potency,[2],inactive
Cc1ccccc1C(=O)O,Potency,[3],inconclusive: 67.3 µM [cytotoxic]
Cc1cccn2c(=O)c(-c3nnn[nH]3)cnc12,"activity change, negative = cytotoxicity",[4],inactive: -2.85% [at 19 µM]
same,"activity change, negative = cytotoxicity",[3],inactive: 1.66% [at 19 µM]
same,Potency,[5],"inconclusive: 19 µM [inhibitor, single point]"
same,"activity change, negative = inhibition",[6],inactive: -1.3% [at 23.6 µM]
O=c1[nH]c2cc(C(F)(F)F)c(N3CCOCC3)cc2n(CP(=O)(O)O)c1=O,Potency,[4],inactive
same,Potency,[3],inactive
same,Potency,[7],inactive
CCCCCC=CCC=CCCCCCCCC(=O)OCC,Potency,[4],inactive
same,Potency,[3],"inconclusive: 29.8 µM [cytotoxic, single point]"
ClCCl,Potency,[4],inactive
same,Potency,[7],"inconclusive: 88 µM [inhibitor, single point]"
C[C@]12CC[C@@H]3c4ccc(O)cc4CC[C@H]3[C@@H]1CC[C@@H]2O,Potency,[4],inactive
CNC[C@H](O)c1ccc(O)c(O)c1,Potency,[4],inactive
same,Potency,[3],"inconclusive: 68.7 µM [cytotoxic, single point]"
same,Potency,[8],"inconclusive: 38.6 µM [cytotoxic, partial curve]"
C[C@@H]1NC(=O)[C@@H](N)CNC(=O)[C@H](C2CCNC(N)=N2)NC(=O)/C(=C/NC(N)=O)NC(=O)[C@H](CNC(=O)C[C@@H](N)CCCN)NC1=O (some centres not stated),"activity change, negative = cytotoxicity",[4],inactive: -2.73% [at 0.349 µM]
same,Potency,[7],"inconclusive: 0.49 µM [inhibitor, single point]"
Nc1nc(Cl)nc2c1ncn2[C@@H]1O[C@H](CO)[C@@H](O)[C@@H]1F,Potency,[9],inactive
same,Potency,[8],inactive
same,Potency,[10],"inconclusive: 0.794 µM [activator, full curve, poor fit]"
same,Potency,[11],active: 1 µM
same,Potency,[5],inactive
COc1ccc(CCN(C)CCCN2CCc3cc(OC)c(OC)cc3CC2=O)cc1OC,Potency,[4],inactive
Nc1ccn([C@@H]2O[C@H](CO)[C@@H](O)C2O)c(=O)n1 (some centres not stated),Potency,[4],inactive
same,Potency,[10],"inconclusive: 0.891 µM [activator, full curve, poor fit]"
Cc1ccc(C(C)(C)C)cc1,Potency,[4],inactive
same,Potency,[7],inactive
Nc1ccc(NCCO)c([N+](=O)[O-])c1,Potency,[4],active: 48.6 µM
same,Potency,[2],inactive
N[C@H]1C(O)O[C@H](CO)[C@@H](O)[C@@H]1O (some centres not stated),Potency,[4],inactive
same,Potency,[5],active: 30.9 µM
CC(C)(Oc1ccc(Cl)cc1)C(=O)O,Potency,[3],"inconclusive: 34.4 µM [rising, partial curve]"
C=CCCCCCCCCCCCC,Potency,[4],inactive
COc1nc(C)nc(Cl)c1NC1=NCCN1,Potency,[4],inactive
same,max activation,[12],inactive: -0.617%
same,Potency,[6],inactive
COc1cc(C(=O)N2CCCCCCC2)cc(OC)c1OC,Potency,[9],inactive
same,Potency,[8],inactive
same,Potency,[2],"inconclusive: 29.8 µM [activator, partial curve]"
same,Potency,[10],"inconclusive: 3.98 µM [activator, full curve, poor fit]"
Cc1cc(=O)[nH]c(C(C)C)n1,Potency,[4],inactive
COc1cc2c3cc1Oc1cc(ccc1O)C[C@@H]1c4c(cc(OC)c(O)c4Oc4ccc(cc4)C[C@@H]3N(C)CC2)CC[N+]1(C)C,Potency,[4],inactive
Cc1ccc2cccnc2c1,"activity, negative = inhibition",[1],inconclusive: 3.48%
same,Potency,[5],"inconclusive: 39.6 µM [inhibitor, partial curve]"
same,Potency,[6],inactive
OC1CCCc2ccccc21 (configuration not stated),Potency,[9],inactive
O=C1CC(c2ccc(Cl)cc2)CC(=O)N1,Potency,[3],"inconclusive: 21.1 µM [rising, partial curve]"
Cc1ccc(C(C)OC(=O)C2(C)CCC(C(=O)O)C2(C)C)cc1 (configuration not stated),"activity, negative = inhibition",[1],inconclusive: 2.09% [at 35.3 µM]
same,Potency,[8],inactive
same,Potency,[6],"inconclusive: 34.7 µM [inhibitor, partial curve]"
CC(C)C1=CC2=CC[C@@H]3[C@](C)(CCC[C@@]3(C)C(=O)O)[C@H]2CC1,Potency,[4],inactive
same,Potency,[3],inconclusive: 68.6 µM [cytotoxic]
c1ccc(CNCc2ccccc2)cc1,Potency,[4],inactive
CC(=O)c1ccc[nH]1,Potency,[4],inactive
COc1ccc2cccc(CCNC(C)=O)c2c1,Potency,[3],inactive
O=c1cc(O)c(Cl)c[nH]1,Potency,[9],inactive
O=C(O)CCCCCCCCCCCC(=O)O,Potency,[1],"inconclusive: 38.9 µM [fluorescent, partial curve, poor fit]"
same,Potency,[5],"inconclusive: 39.9 µM [inhibitor, partial curve]"
same,Potency,[6],"inconclusive: 17.6 µM [inhibitor, full curve] and inconclusive: 56.4 µM [inhibitor, partial curve]"
